Data: the RNAGym collection of RNA variant scans (doi:10.1093/nar/gkz1192)
Read counts are not given, so values of variants with three or more changes are uncertain.

B1: CPEB3 Ribozyme (parent)
chain: UAACAGGGGGCCACAGCAGAAGCGUUCACGUCGCAGCCCCUGUCAGAUUCUGGUGAAUCUGCGAAUUCUGCUGUAUAUCUC

Variants of: B1
Experiment: self-cleavage, relative activity (ratio to wild type); higher = more cleavage; in vitro, sequencing
Method in brief: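 Libraries of CPEB3 self-cleaving ribozyme mutants came from rounds of error-prone PCR and carried barcodes, which DNA sequencing matched to variants. In vitro transcription used T7 RNA polymerase at 37°C for 5 hours, with a further 15 min in DNase I before EDTA stopped the reaction; the ribozymes cleaved during both steps. The RNA was reverse transcribed with template switching and sequenced on Illumina. Relative activity is the cleaved/total read fraction of a variant divided by that of the unmutated ribozyme, averaged over three batches with at least 5 reads.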

Variant	self-cleavage
C17A G19U C62G	0.19
C17A U25C U41C	0.15
C17A U25C U54A A56G	0.19
C17A U26A U58G U60C U67C A77G U78C	0.15
C17A U31A U49G U51C A56G	0.3
C17A U31C U43A U72C	0.18
C17A U49G A75U	0.13
C17G A18G A35U U54G U72C	0.05
C17G A18G A57G	0.07
C17G A18G U25A C27U U76C	0.04
C17G A20U A28G U69C	0.16
C17G A21G C29G U72G U80A	0.12
C17G A21U A35U U67A	0.22
C17G A28G A56G U74C U80C	0.06
C17G A45G A65G	0.05
C17G C32U C37A U41C U58C U72C	0.26
C17G G19U A47G U66C	0.05
C17G U25C C34G	0.13
C17G U26C A28G A56U	0.19
C17G U26G A47G A75U	0.43
C17G U54C U69G	0.11
C17U A18U A47U	0.14
C17U A18U U49C U51C U69C U72C U78C	0.09
C17U A18U U58C	0.15

Variant	self-cleavage
C17U A20U G73A U78C	0.35
C17U A21G C40A U48C U80A	0.15
C17U A21G G52A	0.15
C17U A21G U41G A56G U69C	0.05
C17U A21G U51C A64G	0.1
C17U A21G U60A A65G C71U U78C	0.07
C17U A21G U67C	0.08
C17U A21G U78C U80C	0.24
C17U A35G U76C	1.2
C17U A35U A56U U60C U67C U72A	0.07
C17U A45G U69A	0.16
C17U A45U U48C U58C	0.13
C17U A47G U72C	0.39
C17U A64G U78A	0.17
C17U C23A A35G A45G	0.23
C17U C27A U60C G73C	0.06
C17U C62U U72A	0.14
C17U G19A C39U U54A A57G U72C	0.05
C17U G30A U78C	0.12
C17U G33A G36A U48C U80A	0.06
C17U G46A C62U	0.09
C17U U26A U41C A56U U72C	0.13
C17U U26A U74A	0.26
C17U U26C U31C U48C U60A	0.1

Variant	self-cleavage
C17U U31A A35G A56C	0.55
C17U U31A A35U U49C	0.07
C17U U31C U60C	0.14
C17U U43A A57G	0.53
C17U U43A G63A U69C U80C	0.53
C17U U43A U69C	0.26
C17U U67C C79A	0.16
A18C A20G U25C U51C A56G	0.36
A18C A20G U43C A56U C59U	0.05
A18C A20U A28G	0.05
A18C A20U C79U	0.21
A18C A20U U25C A28U C59A A77G	0.14
A18C A20U U60C A65G	0.33
A18C A21G A45G	0.33
A18C A21G G42U U60C U69A U74C	0.07
A18C A21G U41C U43A C50G	0.03
A18C A28G A45U	0.38
A18C A28G U49C U80C	0.07
A18C A28G U69C	0.08
A18C A28G U74C	0.31
A18C A28U U78C	0.13
A18C A35G A45C U58A	0.25
A18C A35G U41A U60C	0.06
A18C A35G U51C U78C	0.86

Variant	self-cleavage
A18C A45G U69C	0.16
A18C A47G C50A U74A	0.11
A18C A56U U60G U69C	0.28
A18C A57G A64G U69C U72A U80C	0.08
A18C A64G U78C	0.18
A18C A65G U69A	0.19
A18C C23U C44A U72C	0.02
A18C C23U U48A U58A	0.13
A18C C29U U41A U72C	0.07
A18C C32U G33A U72C U74A	0.3
A18C C37U U51A	0.09
A18C C40A U76A	0.1
A18C C40U C50A G55U U69C U78A	0.1
A18C C40U G53U	0.43
A18C C40U G55U U69C	0.29
A18C G24A U31C U51C U72A A75G	0.15
A18C G30A U48G	0.27
A18C G36A U41C U69A C71U	0.08
A18C G36C U48C U78C	0.17
A18C U25A U43C A65C G73A	0.22
A18C U25C U26C U43C G52C	0.8
A18C U26A C62A U67A C68U U76C U80A	0.06
A18C U26A G52C A64G U76C U80A	0.23
A18C U26A U43C U80A	0.05

Variant	self-cleavage
A18C U26A U54C A64U U69C	0.07
A18C U26C A35G U80G	0.52
A18C U26C U41C	0.71
A18C U26C U48C	0.06
A18C U31C A45C U72C U76C A77G	0.11
A18C U31C A45G A65G C79U	0.06
A18C U31C A45G G70A U74G A75U	0.3
A18C U31C A45G U60C	0.15
A18C U31C A47U U49C A57U	0.05
A18C U31C U43C U54C C59A	0
A18C U41A U43C	0.25
A18C U41A U67C A75G	0.09
A18C U43A A64G	0.17
A18C U49A U58A U67C	0.09
A18C U51A U72A U78C	0.2
A18C U51C G53U A57G A65G U80A	0.14
A18C U58C U69A	0.37
A18C U67C U72C	0.2
A18G A20C A28G U43A U54G	0.35
A18G A20C U54C U67C U72C	0.12
A18G A20G A21G A28U U69C	0.36
A18G A20G A35G U43C U74A A77U	0.55
A18G A20G A45G C50A U69A U80C	0.29
A18G A20G A64U U66C	0.17

Variant	self-cleavage
A18G A20G C23G U25C U72C U80C	0.09
A18G A20G C39U U67C	0.46
A18G A20G G33U A35C U66C U72C	0.16
A18G A20G G36U U43C G46A U76C	0.19
A18G A20G U25C U80C	0.09
A18G A20G U26A A28G A64U	0.16
A18G A20G U26A U69C U78C	0.89
A18G A20G U26C A45G U74A	0.47
A18G A20G U26G U43C U51A	0.37
A18G A20G U41A	0.48
A18G A20G U48C	0.38
A18G A20G U48C A57G	0.39
A18G A20G U60C	0.54
A18G A20G U74C U76C	0.45
A18G A20U A21C U49C A56G	0.29
A18G A20U A45G A47G U58C G63A	0.07
A18G A20U A45U G46A U49C A64U	0.09
A18G A20U C23U U80C	0.13
A18G A20U C27A U67A	0.09
A18G A20U C40A U80A	0.09
A18G A20U U54A U67A	0.96
A18G A21C U41A U49C U69A	0.27
A18G A21G A35U U72C U80C	0.09
A18G A21G A45G	0.23

Variant	self-cleavage
A18G A21G A45G C59U	0.16
A18G A21G A56G U74A	0.41
A18G A21G A64U	0.19
A18G A21G G42U U51C	0.06
A18G A21G U25C U41C U69A U72A	0.04
A18G A21G U26A U41A U74C	0.04
A18G A21G U26C A28G	0.33
A18G A21G U51A A57G U66A	0.39
A18G A21G U51G A65U	0.09
A18G A21G U67A	0.37
A18G A21G U69C U72C	1.1
A18G A21U U26A U51C	0.14
A18G A21U U26C A56G U58A	0.05
A18G A21U U31A G70C U78C	0.06
A18G A21U U41G U66G	0.09
A18G A21U U69C	0.39
A18G A28C A64G U72C	0.13
A18G A28C U31C A57U U60C	0.03
A18G A28C U31C C68A	0.04
A18G A28C U48C U51C U72C	0.18
A18G A28C U72C	0.3
A18G A28G A45G	0.24
A18G A28G A45G U74A	0.24
